Consider 22 molecules from PMC12136788.

The other results are listed elsewhere or left out.

B1: chr1:71070866:71070979:-|CDS|ENSG00000132485|unk|total|mutant (ssRNA)
RNA: GGGAGUUCUACAGUCCGACGAUCGAGGAUGAAGAUGACGCUGAUCUCUCAAAAUAUAAUCUUGAUGCCAGUGAAGAAGAAGACCGUAAUAAAAAGAAAUCUAACCGACGAAGUCGCUCAAAGUCUCGAUCUUCACAUUCACGACAACAGAGGAUUGAGCAUCA
B2: chr7:56058368:56058516:+|CDS|ENSG00000146731|unk|total|mutant (ssRNA)
RNA: GGGAGUUCUACAGUCCGACGAUCUACAAGAGUGCAGAAGAGAGAGAAAAACUCGUGAAAGCUGAAAGAAAAUUCAUUGAAGACCGGGUUAAAAAAAUAACCGAACUGAAAAGGAAAGUCUGUGGCGAUUCAGAUAAAGGAUUUCAACAGAGGAUUGAGCAUCA
B3: chr16:84129640:84129741:-|CDS|ENSG00000103160|unk|total|mutant (ssRNA)
RNA: GGGAGUUCUACAGUCCGACGAUCCUUGCAAUAUGAAUAUGCCUCUAAAGGAAUCUUUGUACAGAGUCUAAUCCCUUUCUAUGCCGCCACCAGCAUGACAGCACCCAGCAACUUUCUGCACAGGUGCUCGUGGUUGGUGCCUUCCAACAGAGGAUUGAGCAUCA
B4: ENSG00000182446:stop:overlap|stop_codon|ENSG00000182446|stop_codon|NA|stop_codon (ssRNA)
RNA: GGGAGUUCUACAGUCCGACGAUCGCACGUUCAUGAACCAGCCAGGCACAGGCCACUGCGAGAUGUGCAGCCUCCCCAGGACCUAGGGCGCCUGCCCUCUGCUGGCUAGGACCGGGCCCAGCCCAGCCCUUCCUGAAGCCAGAACAACAGAGGAUUGAGCAUCA
B5: chr17:28717212:28717708:-|CDS|ENSG00000109113|control|control|control (ssRNA)
RNA: GGGAGUUCUACAGUCCGACGAUCGGUGGUCGUAGCGUCUCCGAGACCGCGGACUCCCGUAGGGUCCCCGUGGCCCCGAGUUGUAGUCGGGACACCCCGGCCGCGGGUGAUCGUCGGGUCUCCACGCGCCCGGGUCGCUGACGCCAACAGAGGAUUGAGCAUCA
B6: chr3:94060950:94061511:-|CDS|ENSG00000178700|control|control|control (ssRNA)
RNA: GGGAGUUCUACAGUCCGACGAUCAGUAGACAUGAUUUGGAUAGUUGGUGGCAGUUCUGUUUAUAAGGAAGCCAUGAAUCACCUAGGCCAUCUUAAACUAUUUGUGACAAGGAUCAUGCAGGACUUUGAAAGUGACACGUUUUUCAACAGAGGAUUGAGCAUCA
B7: chr4:41699229:41699330:+|3pUTR|ENSG00000064042|msi1|FALSE|unique (ssRNA)
RNA: GGGAGUUCUACAGUCCGACGAUCGAUUACAUGAAUAUUGCACAUUCCCUUCUGGUUUCACAAACCCAUUUAUACAUAUUUCUUAGUGAGGCUCAUUGUACAUGUAUUGAAGCUAGAAUCGAGUCAAGAAAAAUAAAGCCCCAUCAACAGAGGAUUGAGCAUCA
B8: chr9:121180810:121180911:-|3pUTR|ENSG00000119396|msi1|total|mutant (ssRNA)
RNA: GGGAGUUCUACAGUCCGACGAUCUUUGGAUAAAUUUCCUGUUGUGUGGGUGGCAUUUUUCUUAACGAGAUUUGCUUCUGUCUCCGCCUCACACAGGGAAAAUAUCCAUUUAUCUUCUCUCUCGUGCUUAAUUAACCGCUUUAUCAACAGAGGAUUGAGCAUCA
B9: chr3:10940499:10940600:+|3pUTR|ENSG00000132164|unk|total|mutant (ssRNA)
RNA: GGGAGUUCUACAGUCCGACGAUCGGGGAGGGCAAUGUGGGGGCAGGGGAACAUGUCAUUGUGAUGACUUUUUUGAUAUUCAUCCGAAACAAUACAUCCUUUCUGAGAUAUUUACAGUAUUAUUAAAAAAUGAAAAAGGUUGUACAACAGAGGAUUGAGCAUCA
B10: chr5:74627411:74627511:-|3pUTR|ENSG00000171617|msi1_unk|FALSE|overlapping (ssRNA)
RNA: GGGAGUUCUACAGUCCGACGAUCUUUGUAAAACUGUUAUUUUUUUUUUUUUCACAAUGUGAAACUGAAGGUCAAUAAAUUAUUAGAGAUUUUCUCUUCAUUAUGUGUGUGGGUCUUCAUUUGAAUAAGACACAAUUUGAGGCACAACAGAGGAUUGAGCAUCA
B11: ENSG00000215021:stop:overlap|stop_codon|ENSG00000215021|stop_codon|NA|stop_codon (ssRNA)
RNA: GGGAGUUCUACAGUCCGACGAUCCUACAGAUGGUGAAUAUCUCCCUGCGAGUGUUGUCUCGACCCAAUGCUCAGGAGCUUCCUAGCAUGUACCAGCGCCUAGGGCUGGACUACGAGGAACGAGUGUUGCCGUCCAUUGUCAACCAACAGAGGAUUGAGCAUCA
B12: chr1:89935720:89935824:+|3pUTR|ENSG00000171492|msi1|total|mutant (ssRNA)
RNA: GGGAGUUCUACAGUCCGACGAUCUACAAGAUAAUGCAUUUCCGGAGCCGAUACAUCUUUUAAAAUAAAACAGAGAGGAUGCACCGAAGGCUGACCGAAGACAUAACUGAAUGUUCAAUGUUUGCCGGGUUUUAAGUCAUUCAUCAACAGAGGAUUGAGCAUCA
B13: chr18:9283235:9283336:+|3pUTR|ENSG00000101745|msi1|total|mutant (ssRNA)
RNA: GGGAGUUCUACAGUCCGACGAUCCUGAUGGUUCAACCAGAGGUCUGGGAAACCGCACUGUUGGCCCAAACAGAACAGGCUUUCCGAAGAUAAAAGCGACAAGAAGGAAUCUGGUGAAUUUCCGUCAUCCCAGCUUUUCCGUCUCAACAGAGGAUUGAGCAUCA
B14: chr18:9859767:9859850:+|3pUTR|ENSG00000168461|msi1_unk|total|mutant (ssRNA)
RNA: GGGAGUUCUACAGUCCGACGAUCUUGUUACCUAACCAACCUUCACUGAAAGGCAAAUUCCGUUCAGGAGGUCCGUUUUCCGCCCGCUUUGGAAGUAAGCCUUUAUUUAUUACUUUUUGGAGGAAAUCAGAGAAGUGUCAAUGGCAACAGAGGAUUGAGCAUCA
B15: chr15:80137503:80137604:+|CDS|ENSG00000086666|unk|FALSE|unique (ssRNA)
RNA: GGGAGUUCUACAGUCCGACGAUCCAAUUGCUCUUACAAUUACAAAGCCGAUGCUGCUGAGAAAAUCAGAAAAGAAAAUCCAGUAGUUGUUGGUGAAAAGAUCCAAAAGAUUUGAACUCCUGCUGGAAUACAAAAUUCUUGAGCCAACAGAGGAUUGAGCAUCA
B16: chr19:58433325:58435211:-|CDS|ENSG00000131849|control|control|control (ssRNA)
RNA: GGGAGUUCUACAGUCCGACGAUCGAAAGAUCUACACUUGUUCGGCACCAGAAAGUUCACACCAGAGAAAGGACUUAUGAGUGUAGCCAGUGUGGGAAACUCUUCAGCCAUCUUUGUAACCUUGCACAGCAUAAAAAGAUUCAUCAACAGAGGAUUGAGCAUCA
B17: ENSG00000021776:stop:overlap|stop_codon|ENSG00000021776|stop_codon|NA|stop_codon (ssRNA)
RNA: GGGAGUUCUACAGUCCGACGAUCCUGCACCGGCAGAAGCUAACACACCUCAGGAUGCCACAUCUGCCCCGGAAGAGACCAAGUAGCCAAACUGUAGUCCUUCUAAAGGAGGACAUGGCAGUCAAAAAGUCUGAGUAAAGCUGUCAACAGAGGAUUGAGCAUCA
B18: chr3:48693060:48693174:-|CDS|ENSG00000068745|unk|total|mutant (ssRNA)
RNA: GGGAGUUCUACAGUCCGACGAUCCCUUCCAGGUGUGGUAUCUGUGCGCUUUGAAGAAGAUGAAGACAGGAACUUGUGUCUAACCGCAUAUCCAUUGAAAGGGGACCAUGGAAUUGUGGACAUUGCCGAUAAUUCAGACUGUGACAACAGAGGAUUGAGCAUCA
B19: chr10:68442948:68443070:-|CDS|ENSG00000138346|unk|total|mutant (ssRNA)
RNA: GGGAGUUCUACAGUCCGACGAUCCCCAAUUGUGAUGCUGCCCAAAACCGAAGAAGAAACCCAGCAUCUGAAGCAAACACACUCCGAAUAUUUCAGCCUUUGGUGUCUAAUGUUAACCCUGGAGUCACAAUCGAAGGAUAAUAACAACAGAGGAUUGAGCAUCA
B20: chr12:57028516:57028881:-|three_prime_utr|ENSG00000166866|control|control|control (ssRNA)
RNA: GGGAGUUCUACAGUCCGACGAUCUUAAACUACCCUUGAAGAGGACCCUUGUCCCAAACCCUUCUUGUUCUCUCCUCCAAAAGUAGCUUCCUCCAACCCGCAGCCUCUCUGCACACUAAUAAAACAUGUGGCUUGGAAAGGUUCCAACAGAGGAUUGAGCAUCA
B21: chr3:98797769:98798349:-|3pUTR|ENSG00000057019|msi1|total|mutant (ssRNA)
RNA: GGGAGUUCUACAGUCCGACGAUCUUGUUUUUGAUACCUCCUGGCAGCUUCCAUGUCACCACUUGUUCAUACCUGCCCAGAGCCCGUUUCCGACAUGGCAAAACCGAAAUCAUCUGUAAUUUAUCCGCUAACAAUGUAAAACCACAACAGAGGAUUGAGCAUCA
B22: chr6:30743938:30744518:-|CDS|ENSG00000137331|control|control|control (ssRNA)
RNA: GGGAGUUCUACAGUCCGACGAUCUGGGGAACGACCCGACUCCAGAGGCCUCGACCUGACCUGUCUCCUGUUUUGUCUCCCCUUAGGUCCGGCGCCAGCUGCCAGUCGAGGAACCGAACCCAGCCAAAAGGCUUCUCUUUCUGCCAACAGAGGAUUGAGCAUCA

In the experiment the target is T1, UNK ZnF1-6 (called full-length) (human, UniProt Q9C0B0 30-357).
T1 sequence: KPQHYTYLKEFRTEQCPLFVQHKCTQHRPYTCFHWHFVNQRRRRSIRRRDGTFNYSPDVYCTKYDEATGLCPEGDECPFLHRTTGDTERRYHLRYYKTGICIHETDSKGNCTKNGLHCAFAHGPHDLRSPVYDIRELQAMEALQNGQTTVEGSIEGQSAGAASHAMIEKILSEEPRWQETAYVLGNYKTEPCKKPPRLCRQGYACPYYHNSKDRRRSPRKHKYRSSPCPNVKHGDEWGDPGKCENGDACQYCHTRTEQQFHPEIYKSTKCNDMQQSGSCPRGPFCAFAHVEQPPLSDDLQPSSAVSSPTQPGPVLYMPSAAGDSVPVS
Description: nsRBNS (natural sequence RNA bind-n-seq); RBNS binding buffer (assumed for nsRBNS): 25 mM Tris pH 7.5, 150 mM KCl, 3 mM MgCl2, 0.01% Triton X-100, 500 ug/ml BSA, 20 U/ml SUPERase-In, 4 C; UNK is unkempt and MSI1 is Musashi-1; names of the RNAs are library labels; protein concentration not given here; high values mean tight binding.
Regarding B1, the binding signal was 0.409 enrichment R.

Molecule B2 had a binding signal of 0.427 enrichment R.

On to B3, for which the binding signal was 0.388 enrichment R.

In the case of B4, the binding signal came to 0.263 enrichment R.

For the molecule B5, the binding signal was found to be 1.16 enrichment R.

Take B6: the binding signal worked out at 0.502 enrichment R.

In turn, B7 showed a binding signal of 0.637 enrichment R.

As for B8, the binding signal is 0.485 enrichment R.

For the molecule B9, the binding signal was 1.41 enrichment R.

Regarding B10, the binding signal came out at 1.17 enrichment R.

Molecule B11 registered a binding signal of 0.362 enrichment R.

B12 gave a binding signal of 0.333 enrichment R.

On to B13, for which the binding signal stood at 0.392 enrichment R.

In turn, B14 returned a binding signal of 0.466 enrichment R.

With B15, the binding signal amounted to 0.362 enrichment R.

Turning to B16, the binding signal was 0.533 enrichment R.

B17 came in with a binding signal of 0.541 enrichment R.

Take B18: the binding signal worked out at 0.665 enrichment R.

In the case of B19, the binding signal turned out to be 0.471 enrichment R.

In turn, B20 had a binding signal of 0.686 enrichment R.

Molecule B21 registered a binding signal of 0.619 enrichment R.

In turn, B22 yielded a binding signal of 1.02 enrichment R.
